The subject of data set [1] is Rat. Put plainly: concentration in plasma after dosing. To be noted: 2 h; dosed: 2-Methyltetrahydrofuran; 10 mg/kg; oral; Male; F344.
Data set [2] has as its system Rat. Put plainly: concentration in plasma after dosing. The note with it: 12 h; dosed: 2-Methyltetrahydrofuran; 400 mg/kg; oral; Male; F344.
Data set [3] relates to Rat. Put plainly: concentration in brain after dosing. To be noted: 3 h; dosed: 2-Methyltetrahydrofuran; 10 mg/kg; iv; Female; F344.
Data set [4] relates to Rat. The data set is described as follows: concentration in brain after dosing. The note with it: 2 min; dosed: 2-Methyltetrahydrofuran; 10 mg/kg; iv; Female; F344.
In data set [5] the test system is Rat. The data set is described as follows: concentration in plasma after dosing. The note with it: dosed: Formamide, 300 mg/kg, oral, Female, Harlan Sprague Dawley.
Data set [6] deals with Rat. The data set is described as follows: concentration in plasma after dosing. The note with it: dosed: Formamide, 300 mg/kg, oral, Male, F344.
Data set [7] deals with Rat. Put plainly: concentration in plasma after dosing. The note with it: 0.25 h; dosed: Pyridine; 10 mg/kg; iv; Male; Harlan Sprague Dawley.

This continues a long series; more values of the same kind are listed elsewhere.

With `CC1CCCO1` (centres undefined) [2-Methyltetrahydrofuran], the concentration in plasma amounted to 0.119 µg/mL in the data set on Rat [1] and 0.314 µg/mL with Rat [2]. Further, the concentration in brain in the data set on Rat [3] was found to be 0.0207 µg/g; with Rat [4], 10.9 µg/g.

Turning to `NC=O` [Formamide], the concentration in plasma amounted to 245 µg/mL in the data set with Rat [5] (1.5 h), 124 µg/mL in the data set on Rat [5] (30 h), 137 µg/mL with Rat [6] (0.25 h) and 282 µg/mL in the data set on Rat [6] (5 h).

In the data set on Rat [7], `c1ccncc1` [Pyridine] returned a concentration in plasma of 3.37 µg/mL.

The values are drawn from EPA's CvTdb concentration-time database.
